For 2 molecules, binding results are on record in publication PMC8115599, “Mechanism of MRX inhibition by Rif2 at telomeres” (Nature Communications, 2021).

The target of experiment [1] is T1, GST-Rif2_(1-60) (S. cerevisiae, UniProt Q06208 1-60).
T1 construct: Rif2, S. cerevisiae, residues 1-60; also called GST-ScRif2_(1-60); Rif2 BAT; source: E. coli BL21 (DE3), purified (GSH Sepharose, Hitrap Heparine)
T1 sequence (looked up): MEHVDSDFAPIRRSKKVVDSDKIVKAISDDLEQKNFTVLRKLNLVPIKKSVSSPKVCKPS
Nature of the experiment: pull-down; GST-Rif2_(1-60), its F8A mutant or GST (10 µg) immobilised on Glutathione Sepharose 4B; Rad50∆CC (30 µg) added in 100 µL 50 mM Tris HCl pH 8, 150 mM NaCl, 1 mM DTT, 0.5 mM EDTA, 10% glycerol, 2 mM MgCl2, benzonase; 120 min at 4 °C; glutathione elution, SDS-PAGE, silver staining; both purified.

The target of experiment [2] is T2, GST-Rif2_(1-60)-F8A (S. cerevisiae) (UniProt Q06208).
T2 sequence: T1 sequence (looked up) with F8A
The experiment is described as above.

Where a chain is given by its changes, count along the chain named. Names and notes keep the numbering of the source. Results are given in words; binding and its absence hold for the method and conditions named. Sequences can lack the tags named with a protein.

B1: Rad50∆CC-K81E, purified (His-SUMO tag removed) (domain or fragment, UniProt P12753 1-189; P12753 1125-1312)
chain: MSAIYKLSIQGIRSFDSNDRETIEFGKPLTLIVGMNGSGKTTIIECLKYATTGDLPPNSKGGVFIHDPKITGEKDIRAQVELAFTSANGLNMIVTRNIQLLMKKTTTTFKTLEGQLVAINNSGDRSTLSTRSLELDAQVPLYLGVPKAILEYVIFCHQEDSLWPLSEPSNLKKKFDEIFQAMKFTKALDKILCYDDIDVYSKALDSAIMKYHGLKMQDINRIIDELWKRTYSGTDIDTIKIRSDEVSSTVKGKSYNYRVVMYKQDVELDMRGRCSAGQKVLASIIIRLALSETFGANCGVIALDEPTTNLDEENIESLAKSLHNIINMRRHQKNFQLIVITHDEKFLGHMNAAAFTDHFFKVKRDDRQKSQIEWVDINRVTY
Consider B1, for which the binding result in experiment [1] is on record as “no binding (tested: 30 µg Rad50∆CC in 100 µL)”.

B2: Rad50∆CC, purified (His-SUMO tag removed) (domain or fragment, S. cerevisiae)
chain: B1 chain with E81K
notes: Rad50, S. cerevisiae, N-terminal Head domain, residues 1-189; residues joining the two Head domains in the Rad50∆CC allele; Rad50, S. cerevisiae, C-terminal Head domain, residues 1125-1312; also called Rad50 ATPase Head; Rad50 Head domains; source: E. coli BL21 (DE3), purified (NiNTA, PD10; tag cleaved with His-SUMO-Protease); not shown: His6-SUMO, N-terminal, cleaved
B2: the binding result in experiment [2] is “no binding (tested: 30 µg Rad50∆CC in 100 µL)”.
